The values that follow come from the RNAGym collection of RNA variant scans (doi:10.7554/elife.90254).

The source gives no read counts; variants with many changes may rest on few reads.

First the molecules themselves.
B1: OR4K15 (parent)
chain: GUUAACGGUCAUAGGCCAUGGAAACUAGGAGCACCAUUUCGCUGCCAGUGAAGAAAUGAACAAAGAAAAUCUGGGCCAGGCAGGCAUCAAAAGAAAUAGUCUUGCGCUCAACCAGAAAGUCUGUAAUCAUUUUAAGGGUA

This data set covers variants of B1. The data set is described as follows: self-cleavage, relative activity (ratio to wild type); higher = more cleavage; in vitro, sequencing; the parent is a self-cleaving ribozyme.
With GUUAACGGUCUUAGGCCAUGGGAACUAGGAGCACCAUUUCGCUGCCAGUGAAGAAAUGAACAAAGAAAAUCUGGGCCAGGCAGGCAUCAAAAGAAAUAGUCUUGCGCUCAACCAGAGAGUCUGUAAUCAUUUUAAGGGUA [A11U A22G A117G], the self-cleavage is 1.73. On to GUUAACGGUCUUAGGCCAUGGAAACUAGGAGCACCAUUUCGCUGCCAGUGGAGAAAUGAACAAAGGAAAUCUGGGCCAGGCAGGCAUCAAAAGAAAUAGUCUUGCGCUCAACCAGAAAGUCUGUAAUCAUUUUAAGGGUA [A11U A51G A66G], for which the self-cleavage is 1.42. To GUUAACGGUCGUAGGCCAUGGAAACUAGGAGCACCAUUUCGCUGCCAGUGAAGAAAUGAACAAAGAAAAUCUGGGCCAGGCAGGCACCAAAAGAAAUAGUCUUGCGCUCAACCAGAAAGUCUGUAACCAUUUUAAGGGUA [A11G U87C U127C] belongs 0.12. To GUUAACGGUCGUAGGCCAUGGAAACUAGGAGCACCAUUUCGCUGCCAGCGAAGAAAUGAACAAAGAAAAUCUGGGCCAGGCAGGCAUCGAAAGAAAUAGUCUUGCGCUCAGCCAGAAAGUCUGUAAUCAUUUUAAGGGUA [A11G U49C A89G A111G] belongs 0.05. Consider GUUAACGGUCGUAGGCCAUGGAAACUAGGAGCACCAUUUCGCCGCCAGUGAAGAAAUGAACAAAGAAAAUCUGGGCCAGGCAGGCAUCAAAGGAAAUAGUCUUGCGCUCAACCAGAAGGUCUGUAAUCAUUUUAAGGGUA [A11G U43C A92G A118G], for which the self-cleavage amounted to 1.23.

With GUUAACGGUCGUAGGCCAUGGAAACUAGGAGCACCAUUUCGCCGCCAGUGAAGAAAUGAACAAAGAAAAUCUGGGCCAGGCAGGCAUCAAAAGAAAUAGUCUUGCGCUCAACCAGAAAGUCUGUAAUCAUUUUAGGGGUA [A11G U43C A135G], the self-cleavage was determined as 0.77. Turning to GUUAACGGUCGUAGGCCAUGGAAACUAGGAGCACCAUUUCGCUGCCAGUGAAGAAACGAACAAAGAAAGUCUGGGCCAGGCAGGCAUCAAAAGAAAUAGUCUUGCGCUCAACCAGAAAGUCUGUAAUCAUUUUAAGGGUA [A11G U57C A69G], the self-cleavage worked out at 1.12.

GUUAACGGUCGUAGGCCAUGGAAACUAGGAGCACCAUUUCGCUGCCAGUGAAGAAAUGAACAAAGAAAAUCUGGGCCAGGCAGGCAUCAAAAGAAAUAGUCUCGCGCUCAGCCAGAAAGUCUGUAAUCAUUUUAAGGGUA [A11G U103C A111G]: the self-cleavage is 0.01. In the case of GUUAACGGUCUUAGGCCAUGGAAACUAGGCGCACCAUUUCGCUGCCAGUGAAGAAAUGAACAAAGAAAAUCCGGGCCAGGCAGGCAUCAAAAGAAAUAGUCUUGCGCUCAACCAGAAAGUCUGUAAUCAUUUUAAGGGUA [A11U A30C U72C] it was 0.2; in that of GUUAACGGUCUUAGGCCAUGGAAACUAGGAGCGCCAUUUCGCUGCCAGUGAAGAAAUGAACAAAGAGAAUCUGGGCCAGGCAGGCACCAAGAGAAAUAGUCUUGCGCUCAACCAGAAAGUCUGUAAUCAUUUUAAGGGUA [A11U A33G A67G U87C A91G], 0.77; in that of GUUAACGGUCGUAGGCCAUGGAAACUAGGAGCACCAUUCCGCUGCCAGUGAAGAUAUGAACAAAGAAAAUCUGGGCCAGGCAGGCAUCAAAAGAAAUAGUCUUGCGCUCAACCAGAAAGUCUGUAAUCAUUUUAAGGGUA [A11G U39C A55U], 0.89.

On to GUUAACGGUCGUAGGCCAUGGAAACUAGGAGCACCAUUCCGCUGCCAGUGAAGAGAUGAACAAAGAAAAUCUGGGCCAGGCAGGCAUCAAAAGAAAUAGUCUUGCGCUCAACCAGAAAGUCUGUAAUCAUUUUAAGGGUA [A11G U39C A55G], for which the self-cleavage came to 1.31. On to GUUAACGGUCUUAGGCCAUGGAAACUAGGAGCACCGUCUCGCUGCCAGUGGAGAAAUGAACAAAGAAAAUCUGGGCCAGGCAGGCAUCAAAAGAAAUAGUCUUGCGCUCAACCAGAAAGUCUGUAAUCAUUUUAAGGGUA [A11U A36G U38C A51G], for which the self-cleavage came out at 1. GUUAACGGUCGUAGGCCAUGGAAACUAGGAGCACCAUUUCGCUGCCAGUGAAGAAACGAACAAAGGAAAUCUGGGCCAGGCAGGCGUCAAAAGAAAUAGUCUUGCGCUCAACCAGAAAGUCUGUAAUCAUUUUAAGGGUA [A11G U57C A66G A86G]: the self-cleavage was 0.39. For the variant GUUAACGGUCGUAGGCCAUGGAAACUAGGAGCACCAUUUCGCCGCCAGUGAAGAAAUGAACAAAGAAAAUCUGGGCCUGGCAGGCAUCAAAAGAAAUAGUCUUGCGCCCAACCAGAAAGUCUGUAAUCAUUUUAAGGGUA [A11G U43C A78U U108C], the self-cleavage was 0.

Take GUUAACGGUCGUAGGCCAUGGAAACUAGGAGCACCAUUUCGCUGCCAGUGAAGAAACGGACAAAGAAAAUCUGGGCCAGGCAGGCAUCAAAAGAAAUAGUCUUGCGCUCAACCAGAAAGUCUGUAAUCAUUUUAAGGGUA [A11G U57C A59G]: the self-cleavage amounted to 1.25. In the case of GUUAACGGUCUUAGGCCAUGGAGACUAGGAGCACCAUUUCGCUGCCAGUGGAGAAAUGAACAAAGGAAAUCUGGGCCAGGCAGGCAUCAAAAGAAAUAGUCUUGCGCUCAACCAGAAAGUCUGUAAUCAUUUUAAGGGUA [A11U A23G A51G A66G] it was 0.89; in that of GUUAACGGUCGUAGGCCAUGGAAACUAGGAGCACCAUUUCGCUGCCAGUGAAGAAAUGAACAAAGAAAAUCUGGGCCAGGCAGGCACCAAAAGAAAUAGUCUUGCGCUCGACCAGAGAGUCUGUAAUCAUUUUAAGGGUA [A11G U87C A110G A117G], 0.1; in that of GUUAACGGUCGUAGGCCAUGGAAACUAGGAGCACCAUUUCGCUGCCAGUGAAGAAAUGAACAAAGAAAAUCUGGGCCAGGCAGGCAUCAAAAGAAAUAGCCUUGCGCUCAACCAGAAAGUCUGUAAUCAUAUUAGGGGUA [A11G U100C U131A A135G], 1.69.

For GUUAACGGUCUUAGGCCAUGGAAGCUAGGAGCACCAUUUCGCUGCCAGGGAAGAAAUGAACAAAGAAAAUCUGGGCCAGGCAGGCACCAAAAGAAAUAGUCUUGCGCUCAACCAGAAAGUCUGUAAUCAUUUUAAGGGUA [A11U A24G U49G U87C], the self-cleavage was 1.11.
